Measurements published in PubChem BioAssay AID588855 (National Center for Advancing Translational Sciences (NCATS), 2011).
Hit rate of the full screen: of about 410,000 compounds, about 5,000 (1.2%) were called active. The shares of active, inactive and inconclusive entries below differ from those in the screen. Calls come from the whole dose curve; as a rule, active = well fitted inhibition curve with a large enough effect; inconclusive = small, poorly fitted or top-dose-only effect; inactive = no such curve, though single readings can be large or run the other way. Potencies beside an inconclusive call are fits to weak or partial responses and may not hold up.

Experiment: qHTS for Inhibitors of TGF-b; note: nearly all actives have a fitted effect of over 65% in size
Conditions: HepG2 CAGA-GFP TGF-b/SMAD3 reporter, GFP fluorescence, 18 h, TGF-beta stimulated, 500 pg/mL final; series mostly up to 46.1 µM; activity, negative = inhibition: at the top concentration
Method in brief: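 Cell-based qHTS in HEPG2 carrying a CAGA-GFP Smad reporter; compounds added before 500 pg/mL final TGF-beta, 18 h incubation at 37 degrees C, GFP fluorescence quantified per cell by imaging cytometry.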
% is set by controls: 0 for no effect and ±100 for the full control effect; potency is the fitted concentration of half-maximal effect; tags give direction and shape of the fitted curve.

Compound | activity, negative = inhibition | Potency
CN(C)Cc1c(O)ccc2oc(Cc3ccccc3)cc12 | inactive: -0.372% | 
Cc1ccc(C)c(N2CCN(CCCNC(=O)c3nnc(Cc4ccc(F)cc4Cl)o3)CC2)c1 |  | inconclusive: 35.5 µM [inhibitor, single point]
CC(C)Cn1c(CN2C(=O)c3ccccc3C2=O)nc2ccccc2c1=O |  | inconclusive: 1.41 µM [inhibitor, partial curve]
COC(=O)C(C)N(C#N)c1nc(C)cc(C)n1 (stereo unspecified) |  | inconclusive: 15.8 µM [inhibitor, single point]
Clc1ccccc1N=C1NN=C(c2cccs2)CS1 |  | inconclusive: 35.5 µM [inhibitor, single point]
COc1ccc(OC)c(S(=O)(=O)Nc2ccc(Oc3ccccc3)cc2)c1 |  | inconclusive: 15.8 µM [inhibitor, single point]
C=C(C)c1cccc(C(C)(C)NC(=O)Nc2cc(C)ccn2)c1 |  | active: 11.2 µM
CCC1=C(c2ccc(C)cc2)S(=O)(=O)N=C1N1CCC(C(=O)NCc2ccccc2Cl)CC1 |  | inconclusive: 22.4 µM [inhibitor, partial curve, poor fit]
CC(C)(C)c1ccc(CC(=O)N2CCC2(C)C(=O)Nc2cccc3c2CCCC3)cc1 (stereo unspecified) |  | inconclusive: 15.8 µM [inhibitor, single point]
Cc1ccc(C(=O)NC(=S)Nc2ccc(N3CCOCC3)cc2)c(C)c1 | inactive: -10.1% | 
COc1ccc(C/C(O)=C(\C#N)c2nc3ccccc3s2)cc1 |  | inconclusive: 35.5 µM [inhibitor, single point]
COC(=O)c1ccc2nc(C3CCCCC3)c(Cc3ccccc3)n2c1 |  | inconclusive: 17.8 µM [inhibitor, single point]
NCCNC(=O)c1c(O)c2cccc3c2n(c1=O)CCC3 |  | inconclusive: 35.5 µM [inhibitor, single point]
CC(=O)c1c(C)[nH]c(C(=O)CSc2nc3ccc(C)cc3[nH]2)c1C |  | inconclusive: 0.891 µM [inhibitor, full curve, poor fit]
CCN(CC)CCOc1ccc2nc(N(C)C)sc2c1 | inactive: -1.01% | 
COc1ccc(-c2nc(NC(=O)C3CCN(c4nc5ccccc5o4)CC3)sc2C)cc1 |  | inconclusive: 20 µM [inhibitor, single point]
Cc1ccccc1CNC(=O)C(=O)NCC(c1cccs1)S(=O)(=O)c1ccc(Cl)cc1 (stereo unspecified) |  | inconclusive: 35.5 µM [inhibitor, single point]
CCc1ccc(NC(=O)Cn2c(=O)n(CC3CCCO3)c(=O)c3cc(OC)c(OC)cc32)cc1 (stereo unspecified) | inactive: -6.53% | 
COc1ccc(NS(=O)(=O)c2ccc(N3CCCCC3)c(N)c2)cc1 |  | inconclusive: 20 µM [inhibitor, partial curve, poor fit]
CC1CCCC(NCC(O)COC(c2ccc(F)cc2)c2ccc(F)cc2)C1C (stereo unspecified) |  | inconclusive: 25.1 µM [inhibitor, single point]
Cc1cc(F)ccc1C(O)c1ncc(-c2ccccc2C(F)(F)F)[nH]1 (stereo unspecified) |  | inconclusive: 11.2 µM [inhibitor, partial curve]
Clc1nnc(N2CCCCC2)c2ccccc12 | inactive: -4.32% | 

Compound | activity, negative = inhibition | Potency
CCOC(=O)Nc1ccc2c(c1)N(C(=O)CCN(CC)CC)c1ccccc1S2=O (stereo unspecified) |  | active: 14.1 µM
Cc1cccc(C(O)c2ncc(-c3ccccc3Cl)[nH]2)c1C (stereo unspecified) | inactive: 13.9% | 
O=C(C1CC1)N1c2ccccc2Sc2ccccc21 |  | inconclusive: 35.5 µM [inhibitor, single point]
CCOc1cc(C(=O)N2CCC(CC3CC(c4ccccc4)=NO3)(C(=O)NCc3ccc(OC)cc3)CC2)cc(OCC)c1OCC (stereo unspecified) |  | inconclusive: 7.94 µM [inhibitor, partial curve, poor fit]
Cc1cccc(N2CCN(Cc3nnc(-c4ccc5c(c4)OCO5)o3)CC2)c1C | inactive: 6.01% | 
COc1cc(Nc2c3c(nc4ccccc24)CCC3)cc(OC)c1OC |  | inconclusive: 11.2 µM [inhibitor, partial curve, poor fit]
CCCCCCCCNC(=O)c1cnccn1 |  | inconclusive: 4.47 µM [inhibitor, partial curve, poor fit]
O=C(Cn1cnc2nc3c(cc2c1=O)CCCC3)N1CCN(c2ccccc2)CC1 | inactive: -2.02% | 
CCn1c(SCC(=O)N2CCCCC2)nc(O)cc1=O |  | inconclusive: 0.708 µM [inhibitor, full curve, poor fit]
CCOc1cccc(C(=O)Nc2ccc3oc(Cc4ccc(Cl)cc4)nc3c2)c1 |  | inconclusive: 1.12 µM [inhibitor, partial curve, poor fit]
Cc1ccc(Cn2ncc(Cl)c(Cl)c2=O)cc1 |  | inconclusive: 20 µM [inhibitor, single point]
CC(=O)c1cc(Cl)ccc1OCc1cccc(S(=O)(=O)N2CCOCC2)c1 |  | inconclusive: 12.6 µM [inhibitor, partial curve, poor fit]
O=C(c1ccc(Cl)cc1)N1CCc2ccccc21 | inactive: -12.7% | 
CSCCC(NS(=O)(=O)c1ccc(C)cc1)C(=O)NC1CCCCC1 (stereo unspecified) | inactive: 11% | 
Cc1ccn2cc(CCNC(=O)C3CCCCC3)nc2c1 | inactive: -12.6% | 
Cn1cnnc1Sc1ccc(/C=C/C(=O)c2ccc(O)cc2)cc1[N+](=O)[O-] |  | inconclusive: 10 µM [inhibitor, partial curve]
Cc1cccc(NC(=S)NC(=O)CCc2ccccc2)c1 |  | inconclusive: 35.5 µM [inhibitor, single point]
Oc1ccc(C[C@@H](CN2CCC[C@@H]2CN2C(=S)NC[C@@H]2Cc2ccccc2)N2C[C@H](Cc3ccccc3)N(CCc3ccccc3)C2=S)cc1 | inactive: -6.38% | 
Clc1cccc(Cc2c(-c3ccccc3)nc3ccc(Br)cn23)c1 |  | inconclusive: 11.2 µM [inhibitor, partial curve]
CCOC(=O)N1CCC(Nc2ncnc3c2cnn3-c2ccc(C)cc2C)CC1 |  | inconclusive: 10 µM [inhibitor, partial curve, poor fit]
Cc1cc2cc(CCNC(=O)c3ccc(S(=O)(=O)N4CCCC4)cc3)c(=O)[nH]c2cc1C |  | inconclusive: 35.5 µM [inhibitor, single point]
O=C(Nc1cc(Cl)cc(Cl)c1)c1ccc(Cn2c(=O)[nH]c3ccsc3c2=O)cc1 |  | inconclusive: 35.5 µM [inhibitor, single point]

Compound | activity, negative = inhibition | Potency
O=C1c2cccc3c(Nc4ccccc4Cl)c([N+](=O)[O-])cc(c23)C(=O)N1CCO |  | inconclusive: 0.501 µM [inhibitor, full curve, poor fit]
Cc1ccc(S(=O)(=O)Nc2ccccc2F)cc1C(=O)OC(C)C(=O)N1CCOCC1 (stereo unspecified) | inactive: -0.987% | 
Cc1ccccc1OCC(=O)NCC(=O)OCC(=O)c1ccc(F)cc1 |  | inconclusive: 35.5 µM [inhibitor, single point]
COc1cccc(Nc2nc(-c3ccc4c(c3)OCCO4)cs2)c1 |  | inconclusive: 5.62 µM [inhibitor, single point]
COc1ccc(C#Cc2ccc(C3=CC(=O)CC(C)(C)C3=O)cc2)cc1 | inactive: -4.44% | 
CCCCCCCn1c(NC(=O)CC)nc2ccccc21 |  | inconclusive: 10 µM [inhibitor, partial curve]
O=C1[C@H]2[C@@H](c3ccc(F)cc3)N3C(=O)N(c4ccccc4)C(=O)[C@@]3(Cc3ccccc3)[C@H]2C(=O)N1C1CCCCC1 |  | inconclusive: 35.5 µM [inhibitor, single point]
Cc1c(Cl)cccc1-n1ncc(C(=O)Nc2ccc(F)cc2F)c1C1CCN(C(=O)OC(C)(C)C)CC1 |  | inconclusive: 2.82 µM [inhibitor, partial curve, poor fit]
Cn1c(N)c(C(c2ccccc2)c2c(N)n(C)c(=O)n(C)c2=O)c(=O)n(C)c1=O |  | inconclusive: 6.31 µM [inhibitor, single point]
Cc1cc(N2CCOCC2)nc2ccc(NC(=O)CCC(=O)N3CCN(c4cccc(C(F)(F)F)c4)CC3)cc12 |  | inconclusive: 22.4 µM [inhibitor, single point]
O=C1C2C3CCCC3=C3CCCC3C2C(=O)N1c1ccc(F)cc1 (stereo unspecified) |  | inactive
O=C(Nc1nc(-c2ccc(F)cc2)cs1)c1ccc(N2C(=O)CCC2=O)cc1 |  | inconclusive: 0.631 µM [inhibitor, partial curve, poor fit]
CCCCCCc1cc2cc(C(=O)OCC)c(=O)oc2cc1O | inactive: 2.37% | 
COc1ccc(C(=O)COc2ccc(F)cc2)c(O)c1C |  | inconclusive: 17.8 µM [inhibitor, partial curve, poor fit]
NC(=O)CCCc1nc(-c2ccccc2)no1 |  | inconclusive: 35.5 µM [inhibitor, single point]
Cc1ccc(-c2c3c(=O)n(C)c(=O)n(C)c3cn2-c2cc(C)ccc2O)cc1 |  | inconclusive: 7.08 µM [inhibitor, partial curve, poor fit]
CCOC(=O)C1(Cc2ccccc2C)CCCN(C(=O)CCC(=O)OC)C1 (stereo unspecified) | inactive: 4.7% | 
CCOC(=O)c1cc(-c2ccc(OC)cc2)n(CCC(=O)NC2CCN(Cc3ccccc3)CC2)c1C |  | inconclusive: 22.4 µM [inhibitor, single point]
CCn1c(-c2ccc(Cl)cc2)n[nH]c1=S | inactive: 20.3% | 
O=C(N/N=C/c1c[nH]c2ccccc12)c1cc(-c2ccc(-c3ccccc3)cc2)n[nH]1 |  | inconclusive: 6.31 µM [inhibitor, full curve, poor fit]
CC(=O)N1CCc2c(sc3c2c(=O)n(CCc2ccccc2)c(=O)n3Cc2cccc(C)c2)C1 | inactive: -1.29% | 
Cc1cccc(NC(=O)c2nc[nH]c2C(=O)NCc2ccccc2)c1 |  | inconclusive: 11.2 µM [inhibitor, partial curve, poor fit]
